Measured values reported in PubChem BioAssay AID493208 (National Center for Advancing Translational Sciences (NCATS), 2011).
The campaign covered roughly 44,000 compounds. About 340 (0.77%) were called active. Inconclusive results (about 5%) are left out. The call rests on the fitted dose curve; in most records, active means well fitted inhibition curve with a large enough effect; inconclusive means small, poorly fitted or top-dose-only effect; inactive means flat fitted curve, though single readings scatter. Some of the results follow.

assay: Acumen qHTS Assay for Inhibitors of the mTORC1 Signaling Pathway in MEF (Tsc2-/-, p53-/-) Cells: Sytravon; settings: phospho-rpS6 immunofluorescence/PI, 24 h; series mostly up to 38.3 µM; activity change, negative = inhibition: at the top concentration;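 further: plate controls were DMSO for no effect and rapamycin for full effect; nearly all actives have a fitted effect of over 50% in size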
Summary of the method: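 Compounds act on Tsc2-/-, p53-/- fibroblasts carrying an empty vector for 24 h before fixation and dual staining for phospho-S6 and DNA (propidium iodide). Values are percentages of cells above a rapamycin-defined pS6/PI threshold.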

Activity change, negative = inhibition, inactive:
Cc1nc2ccn(Cc3cccs3)c(=O)c2cc1C(=O)NCc1ccc(Br)cc1 0.265%
O=C(COc1ccc(Cl)cc1)N(Cc1ccco1)Cc1ccco1 -1.23%
Cc1c(C(=O)N(C)C)sc2c1c(=O)n(-c1ccc(Cl)c(Cl)c1)c(=O)n2CC(=O)C(C)(C)C 0.167%
COc1ccccc1CNC(=O)CCC(=O)N1CC(C)Sc2ccccc21 (stereo not given) -10.7%
Cc1cccc(N2CCN(C(=O)CN3C(=O)COc4ccc(S(=O)(=O)N5CCC(C)CC5)cc43)CC2)c1C 0.429%
COc1ccc(C(=O)Nc2cccc(-c3cn4ccsc4n3)c2)c(OC)c1 -6.49%
O=S(=O)(Nc1cccc(C(F)(F)F)c1)c1ccc(NS(=O)(=O)c2ccc3c(c2)OCCO3)cc1 -1.96%
Cc1ccc(NC(=O)CSc2nc3ccccc3n2CC(=O)N2CCC(C)CC2)cc1C 0%
CCc1nn(CC(=O)N2CCC(C)CC2)c(=O)c2cc3occc3n12 -9.79%
CCCN(c1ccc(C(C)C)cc1)S(=O)(=O)c1ccc2c(c1)n(C)c(=O)c(=O)n2C -8.7%
Cc1csc2nc(COC(=O)c3cccc(NC(=O)c4cccc(Cl)c4)c3)cc(=O)n12 0%
Cc1ccc(-n2nc3c(N4CCC(C(=O)NC5CCC(C)CC5)CC4)nnc(C)c3c2C)cc1 (stereo not given) -1.12%
CCOc1ccc(N(CC(=O)Nc2cc(OC)cc(OC)c2)S(=O)(=O)c2c(C)[nH]c(=O)[nH]c2=O)cc1 -14.4%
CC1=C(C(N)=O)C(c2cccc(O)c2)n2ncnc2N1 (stereo not given) -5.74%
COc1ccc(Cl)cc1NC(=O)Cn1c(=O)oc2cc(S(=O)(=O)N3CCCCCC3)ccc21 -0.929%
O=C(c1cccs1)c1cn(CCOc2ccc(Cl)cc2)c2ccccc12 3.23%
Cc1ccc2sc(N(Cc3cccnc3)C(=O)Cc3ccccc3)nc2c1C -2.39%
Cc1ccc(C(=O)c2cn(Cc3ccccc3F)c3cc4c(cc3c2=O)OCCO4)cc1 -13%
COC(=O)c1ccccc1NC(=O)c1cc(C)nc2c1c(C)nn2-c1ccc(C)cc1 3.68%
COc1ccc(OC)c(NC(=O)CSC2=Nc3ccccc3C3=NC(CC(=O)NCc4ccc(F)cc4)C(=O)N23)c1 (stereo not given) -0.554%
COc1ccc(C2CC(=O)c3c([nH]c(C(=O)OC4CCCCCC4)c3C)C2)cc1 (stereo not given) -0.0597%
COc1cc(OC)c(NC(=O)n2ncc3cc(Cl)ccc32)cc1Cl -1.24%
COc1cccc(OCC(=O)NC2CC(=O)N(c3ccc4c(c3)OCCO4)C2)c1 (stereo not given) -2.22%
Cc1ccc(Cl)cc1NC(=O)NCc1cccn1Cc1ccc(F)cc1 -0.368%
O=C(Nc1ccccc1O)c1cc(S(=O)(=O)N2CCCC2)ccc1Cl 4.02%
Cc1ccc2nc(-c3ccc(NC(=O)c4ccccc4S(C)(=O)=O)cc3)sc2c1 3.35%
COc1ccc2c(c1)c1c(c(=O)n(-c3ccc(OC)c(OC)c3)c(=O)n1CC(=O)N1CCCC1)n2C -0.589%
Cc1ccc(CNC(=O)CSc2ncc(S(=O)(=O)c3ccc(C)c(Cl)c3)c(=O)[nH]2)cc1 1.54%
Cc1ccc(NC(=O)N2CCN(c3nnc(C)c4c(C)n(-c5ccc(Cl)cc5)nc34)CC2)c(C)c1 -10.2%
COc1ccc(-c2nc(C)c(CCNC(=O)c3c(F)cccc3F)s2)cc1 -7.58%
CCOc1ccc(OCC)c(NC(=O)CCc2nc3cccnc3n2Cc2cccs2)c1 -22%
CCOC(=O)c1cccc(NC(=O)CC2C(=O)N(c3ccc(C)cc3)C(=O)N2Cc2cccc(OC)c2)c1 (stereo not given) -0.951%
COc1cc(Cl)c(C)cc1NC(=O)CSc1nc2c(c(=O)[nH]1)CCCC2 0.0739%
CN(C)c1ccc(CNC(=O)c2cnc3sc(N4CCCCCC4)nn3c2=O)cc1 -13.5%
CCCCNC(=O)CCCn1c(=O)c2ccccc2n(Cc2c(C)cc(C)cc2C)c1=O -13.3%
COC(=O)N1CCCc2cc(S(=O)(=O)N3CCN(c4ccccc4)CC3)ccc21 -5.54%
Cc1ccc(C)c(Cn2c(=O)n(CCC(=O)NCc3ccc4c(c3)OCO4)c(=O)c3sccc32)c1 1.2%
Cc1cccc(Cc2c(C)nc3nc(SCc4ccccc4Cl)nn3c2C)c1 -22.6%
COc1ccc(C2CC(=O)Nc3c2c(=O)n(C)c2nc4ccccc4n32)cc1 (stereo not given) 4.6%
COc1ccc(-c2noc(-c3ccc(C)cc3Cl)n2)cc1OC 2.25%
CCOc1ccc(NC(=O)c2sc3ccccc3c2Cl)cc1 2.54%
CS(=O)(=O)n1nc(-c2ccco2)nc1NCc1ccccc1Cl 2.25%
CCOC(=O)c1[nH]c(C)c(C(=O)NCc2cccc(OC)c2)c1C 0.0138%
COc1ccc(CC(=O)NCCc2csc(-c3ccc(C(F)(F)F)cc3)n2)cc1 -8.5%
CCc1ccccc1NC(=O)Cn1c(=O)n(CC(=O)NCCc2ccccc2)c(=O)c2ccccc21 -4.05%
COc1cc(Cl)c(C)cc1NC(=O)CSc1cc(-c2ccccc2)nc(C)n1 0%
COC(=O)c1sc2cccc(F)c2c1S(=O)(=O)Nc1ccc(C)cc1Cl -11.1%
Cc1c(/C=C(\C#N)C(=O)Nc2cccc(Cl)c2)c2ccccc2n1Cc1ccccc1 -4.04%
Cn1c(=O)c2c(SCC(=O)NCc3ccc(F)cc3)nc(-c3ccccc3Cl)nc2n(C)c1=O 1.8%
Cc1ccc(NS(=O)(=O)c2ccc3c(c2)[C@H]2C=CC[C@H]2[C@@H](c2ccc(F)cc2)N3)cc1C -7.47%
COc1ccccc1N1CCN(C(=O)CCn2nc(C)c(S(=O)(=O)N3CCCC3)c2C)CC1 11.1%
O=C(Nc1nnc(C2CC(=O)N(c3ccc(Cl)cc3)C2)s1)c1ccco1 (stereo not given) -0.986%
Cc1ccc(SCc2nc(-c3ccc(C(=O)Nc4cc(C)ccc4C)cc3)oc2C)cc1 -2.46%
O=C(Nc1ccc2[nH]c(=O)c(=O)[nH]c2c1)c1cccc(F)c1 1.3%
Cc1ccccc1C1=CCN(c2ncc(NC(=O)c3ccc(Cl)cc3)cc2C(=O)O)CC1 -1.68%
Cc1nc2nc(SCC(=O)NCCc3ccc(Cl)cc3)nn2c(C)c1Cc1ccccc1Cl -0.156%
Cc1nc2c(-c3ccccc3)c(C)nn2c(C)c1CCC(=O)Nc1ccccc1F -10.6%
CC(=O)c1ccc(N2CCN(C(=O)CCn3cnc4onc(-c5ccc(F)cc5)c4c3=O)CC2)cc1 -5.88%
CCOC(=O)c1ccc(NC(=O)CSc2nccn2-c2cc(C)cc(C)c2)cc1 -5.58%
O=C1CC(c2ccc(F)cc2)c2c(c3ccccc3[nH]c2=O)O1 (stereo not given) 0.711%
CCOc1ccccc1CNCc1c(C(=O)O)n(Cc2ccc(F)cc2)c2cc(C)ccc12 7.12%
CCn1cc(C(=O)NCCc2ccc(C)cc2)c(=O)c2cc(S(=O)(=O)N3CCc4ccccc4C3)ccc21 -12.8%
O=C(Nc1c(-c2ccccc2)nc2ccccn12)c1ccccc1F 4.94%
Cc1ccc(-c2noc(-c3cc(-c4ccc(F)cc4)n[nH]3)n2)cc1 6.83%
Cc1cc(C)cc(NC(=O)CNS(=O)(=O)c2ccc3nc(C)sc3c2)c1 -0.717%
CN1C(=O)Cc2cc(S(=O)(=O)CCC(=O)Nc3ccc(OC(F)(F)F)cc3)ccc21 5.79%
Cc1ccc(NC(=O)CN2C(=O)c3ccccc3Sc3ccc(C(=O)N4CCOCC4)cc32)c(Cl)c1 1.04%
CCN(C(=O)C1CCCN(c2ncnc3c2nc2n3CCCCC2)C1)c1cccc(C)c1 (stereo not given) 0.512%
CCOc1ccc(OC(=O)c2c(-c3ccccc3Cl)noc2C)cc1 2.34%
CCc1cc2c(cc3c(=O)n(CC(=O)NCc4cc(Br)ccc4OC)ncn32)s1 -8.51%
CCN(CC)S(=O)(=O)c1ccc2oc(C(=O)Nc3cc(C)ccc3OC)c(C)c2c1 7.98%
CCCCNC(=O)CN1C(=O)COc2ccc(S(=O)(=O)N3CCCCCC3)cc21 -12.1%
CCOc1ccc(NC(=O)C2CCN(S(=O)(=O)c3c(C)noc3/C=C/c3cccs3)CC2)cc1 3.94%
COC(=O)CNC(=O)N1CCN(S(=O)(=O)c2ccc3c(ccn3C)c2)CC1 -11.5%
CCOc1ccc(-c2nnc(SCC(=O)c3ccccc3)n2-c2ccccc2)cc1 1.7%
Cn1cccc1-c1cc2n(n1)CCC(=O)N2CCCC(=O)NCc1ccc(F)cc1 -0.858%
Cc1ccc(NC(=O)c2ncoc2-c2ccco2)cc1Cl 8.21%
Cc1cccc(C)c1NC(=O)Cn1c(SCC(=O)NCc2ccccc2)nc2ccccc21 1.41%
Cc1cc(=O)[nH]c2nnc(SCc3ccc(C(F)(F)F)cc3)n12 0.606%
CCOC(=O)c1[nH]c(C)c(CCC(=O)Nc2cccc(SC)c2)c1C -5.17%
COc1ccc2cc(CNc3ccc(OC)c(OC)c3)c(=O)n(CC(=O)Nc3ccccc3F)c2c1 1.28%
O=C(Nc1cc2ccc(O)cc2oc1=O)c1ccccc1 -18.7%
Fc1cccc(Cl)c1CNCCSc1nnnn1-c1ccccc1 2.95%
COc1cccc(C(=O)N(Cc2ccco2)c2ccccn2)c1 -0.16%
O=C(CNC(=O)c1ccccc1F)OCc1cc(=O)n2nc(C3CCCCC3)sc2n1 -3.5%
CCOc1ccc(CCNC(=O)CN2C(=O)COc3ccc(S(=O)(=O)N4CCCCCC4)cc32)cc1 5.24%
CCC(=O)C1=C(c2ccc(OC)c(OC)c2)N(C(=O)CC)n2c(CC)nnc2S1 -6.69%
Cc1ccc(NC(=O)c2c(NC(=O)Cc3ccccc3)sc3c2CCCC3)cc1 13.6%
CC(=O)Nc1ccc(NC(=O)CCSCCc2ccccn2)cc1 -5.14%
CN(C)c1ccc(CNC(=O)c2ccc(NC(=O)N3CCCCc4ccccc43)cc2)cc1 1.08%
N#Cc1c(-n2ncnc2-c2cccc(Br)c2)sc2c1CCCCC2 6.89%
COc1ccc(-n2c(SCC(=O)Nc3cccc(C)c3C)nc3c([nH]c4ccccc43)c2=O)cc1 -7.76%
Cc1ccc2oc(=O)c3cc(C(=O)N4CCN(c5ccccc5F)CC4)sc3c2c1 -7.12%
O=S(=O)(Nc1cc(F)ccc1F)c1ccc2[nH]c3c(c2c1)CCCCC3 -15.8%
CC(C)(C)c1ccc(Oc2ccc(NC(=O)CCC(=O)OCC(=O)c3ccccc3)cc2)cc1 3.37%
